# Data as given in PubChem BioAssay AID1468 (National Center for Advancing Translational Sciences (NCATS), 2008).
# The whole screen tested about 280,000 compounds, of which about 1,100 (0.39%) were called active. Inconclusive results, whose numbers are uncertain, are shown with a selection of clear calls. Calls follow the shape of the dose curve; as a rule, active = well fitted inhibition curve with a large enough effect; inconclusive = small, poorly fitted or top-dose-only effect, or effect the other way; inactive = flat fitted curve, though single readings scatter. Potencies of inconclusive entries are left out as doubtful fits.
# Target: Microtubule-associated protein tau (Homo sapiens) (UniProt P10636)
# Experiment: qHTS for Inhibitors of Tau Fibril Formation, Fluorescence Polarization; also: nearly all actives have a fitted effect of over 55% in size
# Settings: K18 P301L tau heparin fibrillization, Alexa594 FP, 6 h; series mostly up to 57.7 µM; activity, negative = inhibition: at the top concentration
# How it was run: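 Human K18 P301L fragment (15 uM unlabeled plus 0.24 uM Alexa 594-labeled) in 100 mM sodium acetate pH 7 with compound, aggregation induced by 20 uM heparin for 6 hr at 37 C. ThT (30 uM) added for 1 hr, then Alexa 594 FP read.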
# % is scaled to controls: 0 for no effect and ±100 for the full control effect; potency is read from the fitted curve at half-maximal effect; tags tell the direction and shape of the fitted curve.
# Chain of UniProt P10636 (P10636 whole entry, looked up): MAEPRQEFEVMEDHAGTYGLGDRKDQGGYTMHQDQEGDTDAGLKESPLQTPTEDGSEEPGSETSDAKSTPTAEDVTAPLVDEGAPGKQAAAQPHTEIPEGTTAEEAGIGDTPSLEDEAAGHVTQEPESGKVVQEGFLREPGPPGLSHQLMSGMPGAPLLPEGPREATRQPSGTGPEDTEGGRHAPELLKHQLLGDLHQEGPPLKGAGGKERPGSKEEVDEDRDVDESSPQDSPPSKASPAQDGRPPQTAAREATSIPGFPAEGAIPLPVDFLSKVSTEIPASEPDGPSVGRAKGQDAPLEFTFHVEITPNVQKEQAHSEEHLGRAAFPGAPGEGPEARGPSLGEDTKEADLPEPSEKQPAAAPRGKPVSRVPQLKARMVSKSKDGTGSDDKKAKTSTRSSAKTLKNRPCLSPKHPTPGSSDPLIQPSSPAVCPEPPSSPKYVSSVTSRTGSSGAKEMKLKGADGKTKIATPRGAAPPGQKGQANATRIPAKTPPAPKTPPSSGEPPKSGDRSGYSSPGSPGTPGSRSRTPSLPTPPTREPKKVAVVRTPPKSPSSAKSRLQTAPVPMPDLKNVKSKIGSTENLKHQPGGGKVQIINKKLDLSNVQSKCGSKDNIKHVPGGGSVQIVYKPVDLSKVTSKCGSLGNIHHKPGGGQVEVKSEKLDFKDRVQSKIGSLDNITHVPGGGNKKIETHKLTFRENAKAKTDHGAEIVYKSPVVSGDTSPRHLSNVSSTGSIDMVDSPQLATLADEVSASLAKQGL
Structure (SMILES),Potency,"activity, negative = inhibition"
Cc1c(Br)c(O)c(Br)c2sc(=O)oc12,"inconclusive [inhibitor, partial curve]",–
COc1cccc(NC2=C(C#N)C(=O)NC(c3cccc(OC)c3O)S2)c1 (centres undefined),"inconclusive [inhibitor, partial curve]",–
CCCCOc1ccc(C(=O)Nc2cc(-c3cn4cccnc4n3)ccc2OC)cc1,–,inactive: -3.67%
COc1ccccc1N1CCN(C(=O)CSc2nnc(NC(=O)c3ccco3)s2)CC1,"inconclusive [inhibitor, full curve, poor fit]",–
COc1ccc(NC(=O)NC(C)c2c(-n3cccc3)sc(C)c2C)cc1OC (centres undefined),"inconclusive [activator, partial curve]",–
CCOC(=O)c1c(C)[nH]c(C)c1S(=O)(=O)N1CCN(c2cc(Cl)ccc2C)CC1,"inconclusive [inhibitor, single point]",–
Cc1nc(Nc2ccccc2)sc1C,–,inactive: 5.66%
COc1cccc(NC(=S)NCCC(c2ccccc2)c2ccccc2)c1,"inconclusive [inhibitor, partial curve]",–
CC1Cc2cc(/C(O)=C3/C(=O)C(=O)N(CCN4CCOCC4)C3c3cccc(Cl)c3)ccc2O1 (centres undefined),–,inactive: 10.7%
Cc1ccc(-c2cc(C(=O)NCc3ccc4c(c3)OCO4)[nH]n2)c(O)c1C,"inconclusive [inhibitor, partial curve, poor fit]",–
O=C(O)C1Cc2[nH]cnc2C(c2cccc([N+](=O)[O-])c2)N1 (centres undefined),"inconclusive [inhibitor, single point]",–
CCc1cccc(NC(=O)c2ccc3c(c2)N(Cc2cccc(Cl)c2)C(=O)c2ccccc2S3=O)c1 (centres undefined),"inconclusive [inhibitor, partial curve]",–
COc1cc(/C=N/NC(=O)CNc2n[nH]c(=O)[nH]c2=O)ccc1O,"inconclusive [inhibitor, partial curve]",–
COc1ccc(OC)c(-c2cc(C(=O)NCc3cccs3)no2)c1,"inconclusive [inhibitor, partial curve, poor fit]",–
CC(=O)NNc1cc(N2CCOCC2)nc(N2CCOCC2)n1,–,inactive: -4.49%
Cc1ccc(NC(=O)Cn2c(=O)n(Cc3ccc4c(c3)OCO4)c(=O)c3oc4ccccc4c32)cc1C,"inconclusive [inhibitor, partial curve]",–
CC(C)(C)NC(=O)c1cccc(NC(=O)c2ccc(NC(=O)c3ccco3)cc2)c1,"inconclusive [inhibitor, partial curve]",–
N=C1/C(=C\c2ccc(SCc3ccccc3)o2)C(=O)N=C2SC=NN12,"inconclusive [inhibitor, single point]",–
COc1cccc(NS(=O)(=O)c2ccc3[nH]cc(C(=O)NC(C)c4ccccc4)c(=O)c3c2)c1 (centres undefined),active: 7.94 µM,–
Cc1cccc(NC(=O)c2cn(-c3ccccc3)nc2-c2ccccc2)c1C,–,inactive: 0.0658%
[O-]/C(=C(\C(=S)Nc1ccccc1F)[n+]1ccccc1)c1ccc(OC(F)F)cc1,–,inactive: -2.22%
Cn1c(=O)oc2cc(S(=O)(=O)NC(Cc3ccccc3)C(=O)Nc3ccc(F)c(Cl)c3)ccc21 (centres undefined),"inconclusive [inhibitor, full curve]",–

Structure (SMILES),Potency,"activity, negative = inhibition"
Cc1ccc(-c2nc(SCC(=O)c3c(N)n(C)c(=O)n(C)c3=O)n[nH]2)cc1,–,inactive: -4.14%
CC(CNC(=O)COc1ccccc1)OC(=O)Nc1ccc(Cl)c(Cl)c1 (centres undefined),"inconclusive [inhibitor, partial curve]",–
CC(=O)C(Cl)C(=O)Nc1ccccc1 (centres undefined),"inconclusive [inhibitor, partial curve]",–
Cc1ccc(C(=O)N2CCN(c3ccc(NC(=O)COc4ccccc4C)cc3)CC2)cc1,–,inactive: 4.05%
COC(=O)[C@@]1(Cc2ccccc2)C=C[C@@H](C)N1C(=O)c1ccccc1,–,inactive: -5.63%
Cc1ccc(-n2ncc3c(NCc4cccnc4)ncnc32)c(C)c1,–,inactive: 1.69%
COc1ccc2c(c1)c1c(c(=O)n(-c3cc(Cl)ccc3C)c(=O)n1CC(=O)N1CCCC1)n2C,–,inactive: -0.603%
COC(=O)c1ccc(CSc2ccc3nnc(-c4ccc(F)cc4)n3n2)o1,"inconclusive [inhibitor, single point]",–
COc1ccc(OC)c(Nc2nc3ccccc3nc2-n2nc(C)cc2C)c1,"inconclusive [activator, full curve]",–
O=C(Nc1ccc(Cl)c(Cl)c1)Nc1nnc(CC2=CCCCC2)s1,active: 8.91 µM,–
CCN(CC)S(=O)(=O)c1ccc(Cl)c(OC)c1,"inconclusive [inhibitor, single point]",–
CC(C)(C)c1ccc(-c2nc3c(C#N)c(-c4ccc5c(c4)OCO5)ccn3n2)cc1,"inconclusive [inhibitor, partial curve]",–
CN(CCOc1ccccc1)CC(=O)Nc1ccc(Cl)cc1[N+](=O)[O-],"inconclusive [inhibitor, full curve, poor fit]",–
Cn1nc(C(C)(C)C)cc1NC(=O)Nc1cc(Cl)cc(Cl)c1,active: 25.1 µM,–
CCOCCCn1c(=N)c(C(=O)NCc2ccc3c(c2)OCO3)cc2c(=O)n3cccc(C)c3nc21,"inconclusive [inhibitor, single point]",–
COc1cc(/C=N/N2CCOCC2)ccc1OCc1ccccc1,–,inactive: 7.27%
CC(C)CCn1c(=O)c2ccccc2n2c(CCl)nnc12,–,inactive: 3.52%
Cc1nn(-c2ccccc2)c2nc(C3CC3)cc(C(=O)Nc3cccc(F)c3)c12,"inconclusive [inhibitor, partial curve]",–
COc1ccccc1/C=N/NC(=O)c1ccc(CN2C(=O)c3cccc4cccc2c34)cc1,"inconclusive [inhibitor, single point]",–
Cc1cc(C)nc(N/N=C/c2ccccc2OCc2ccccc2)n1,–,inactive: 9.89%
COc1cccc(NC(=O)c2oc3ccccc3c2NC(=O)c2ccccc2C)c1,"inconclusive [inhibitor, partial curve]",–
COC(=O)CCC(=O)OC1(C)C(=O)C2=CN(C3CCCC3)C(c3ccc(OC)cc3)=CC2=C(Br)C1=O (centres undefined),"inconclusive [inhibitor, partial curve]",–
